The text below walks through data of PubChem BioAssay AID1508624 (National Center for Advancing Translational Sciences (NCATS), 2021).

The whole screen tested about 48,000 compounds, of which about 120 (0.25%) were called active. Roughly 4% stayed inconclusive and do not appear here. The call rests on the fitted dose curve; in most records, active means well fitted activation curve with a large enough effect; inconclusive means small, poorly fitted or top-dose-only effect, or another doubt; inactive means no such curve, though single readings can be large or run the other way. Some of the results follow.

The test can be described thus: Primary qHTS for Identification of Small Molecule Activators of Huntingtin-Antisense Promoter Activity. Further: nearly all actives have a fitted effect of over 55% in size. The note with it: HEK293 HTT-AS promoter firefly luciferase reporter (activity 0% = vehicle and -100% = no light), 24 h; series mostly up to 57.5 µM; activity change, positive = activation: at the top concentration. A digest of the protocol: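 Luminescence was read after Dual-Glo reagent and a 10 min room-temperature incubation. Values were normalized to vehicle (0% activity) and zero RLU (-100% activity). Reporter HEK293 cells had been exposed to compounds (up to 57.5 uM final) for 24 h.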
On the technique in general: In qHTS, concentration-response curves come from the screen itself.
For the compound `Cc1cccc(OCC(=O)Nc2nnc(S(=O)(=O)N3CCCCCC3)s2)c1`, the “activity change, positive = activation” value was inactive: -17.3%.

On to `CS(=O)(=O)c1ncc(Cl)c(C(=O)N(Cc2ccc(Cl)cc2)Cc2ccco2)n1`, for which the “activity change, positive = activation” value was inactive: -94.3%.

`Cc1ccc(-n2nc(C(=O)NC(C)C)c(=O)n(C)c2=O)cc1`: the “activity change, positive = activation” value is inactive: -6.21%.

On to `COc1cc(Cl)c(C)cc1NC(=O)c1c(C)oc2nc(C)nc(N3CCCC3)c12`, for which the “activity change, positive = activation” value was inactive: -2.69%.

In the case of `CCc1nnc(NC(=O)CSc2nccn2Cc2ccccc2)s1`, the “activity change, positive = activation” value was inactive: -25.2%.

Turning to `O=C(Cn1c(-c2cccs2)cc2ccccc21)NCCCN1CCN(c2cccc(Cl)c2)CC1`, the “activity change, positive = activation” value was inactive: -29.3%.

In the case of `O=C1CCCc2cc(S(=O)(=O)N3CCCC(C(=O)NCc4ccccc4Cl)C3)ccc2N1` (stereo unspecified), the “activity change, positive = activation” value was inactive: -32.6%.

As for `COC(=O)Cn1c(=O)c2c(nc3n2CCN3c2cccc(C)c2)n(C)c1=O`, the “activity change, positive = activation” value was inactive: -4.2%.

Take `CCCCc1ccc(NC(=O)c2cc3c(=O)n4ccccc4nc3n2C)cc1`: the “activity change, positive = activation” value is inactive: -8.91%.

For the compound `COc1ccc2nc3sc(C(=O)Nc4ccccc4F)cc3cc2c1`, the “activity change, positive = activation” value is inactive: 23.7%.

Take `COc1ccc(NC(=O)CCCc2nc(-c3ccco3)no2)c(OC)c1`: the “activity change, positive = activation” value was inactive: -23.4%.

Regarding `CCN(CC)S(=O)(=O)c1ccc(NC(=O)[C@H](CSCc2ccccc2)N2Cc3ccccc3C2=O)cc1`, the “activity change, positive = activation” value is inactive: -0.0842%.

For `COc1cccc(OC(=O)CSc2nnc(-c3ccccc3OC)o2)c1`, the “activity change, positive = activation” value was inactive: -21.1%.

For the compound `O=c1cc(CN2CCN(S(=O)(=O)c3ccc(Cl)cc3)CC2)nc2sc(-c3ccccc3F)nn12`, the “activity change, positive = activation” value is inactive: -12.7%.

As to `O=S(=O)(NCCc1ccccc1)c1ccc(N2CCCCS2(=O)=O)cc1`, the “activity change, positive = activation” value was inactive: -24.2%.

On to `COc1ccc(C(=O)O)cc1Nc1nc2ccc(C)cc2n2cnnc12`, for which the “activity change, positive = activation” value was inactive: -13.8%.

Consider `NC(=O)CC[C@@H](N)C(=O)O`, for which the “activity change, positive = activation” value was inactive: 1.81%.

Take `Cc1cccc(NC(=O)c2sc3nc4n(c(=O)c3c2C)N=C(c2ccc(F)cc2)CS4)c1C`: the “activity change, positive = activation” value is inactive: -8.9%.

Consider `Cc1ccc(C)c(N2CCN(c3nc4ccccc4c4nc(CCn5nc(C)cc5C)nn34)CC2)c1`, for which the “activity change, positive = activation” value was inactive: 13%.

In the case of `CO/N=C(\C(=O)N[C@@H]1C(=O)N2C(C(=O)O)=C(CSc3nc(=O)c(O)nn3C)CS[C@H]12)c1csc(N)n1`, the “activity change, positive = activation” value is inactive: 2.04%.

With `O=C(CSc1nc(-c2ccc(Cl)cc2)nc2c1Cc1ccccc1O2)N1CCCCC1`, the “activity change, positive = activation” value was inactive: 19.3%.

For the compound `Cc1ccc(N2C(=O)CS(=O)(=O)C23C(=O)N(Cc2cccc(F)c2)c2ccccc23)cc1Cl` (stereo unspecified), the “activity change, positive = activation” value is inactive: -29.9%.

On to `COc1ccc(Cl)cc1NC(=O)c1cc2nc(-c3ccc4c(c3)OCO4)cc(C(F)(F)F)n2n1`, for which the “activity change, positive = activation” value was inactive: -2.5%.

With `COc1cc(C2CC(=O)Nc3c2c(=O)[nH]c2nc4ccccc4n32)ccc1O` (stereo unspecified), the “activity change, positive = activation” value was inactive: -11.1%.

Turning to `CC1(C)C(=O)N(CC(=O)Nc2ccc(Cl)cc2)c2ccccc21`, the “activity change, positive = activation” value is inactive: -5.44%.

Turning to `CCC(C)NC(=O)c1cc2c(Cl)nc3ccc(C)cc3c2s1` (stereo unspecified), the “activity change, positive = activation” value was inactive: -4.71%.

As for `CCc1nn2c(=O)cc(COC(=O)c3ccccc3NC(=O)COc3ccccc3C)nc2s1`, the “activity change, positive = activation” value was inactive: 9.52%.

As for `COc1ccc(-c2nn3c(-c4ccc(OC)cc4)nnc3c3ccccc23)cc1`, the “activity change, positive = activation” value was inactive: -5.96%.

For `Cc1ccc2c(c1)cc(C(=O)Nc1ccccc1C)n2C`, the “activity change, positive = activation” value was inactive: -13.1%.

Turning to `O=C(c1ccco1)N(Cc1cccnc1)c1nc2ccc(F)cc2s1`, the “activity change, positive = activation” value is inactive: 15.7%.

For `CCc1ccc(C2C(C(=O)Nc3ccccc3)=C(C)Nc3c(C(=O)Nc4ccc(C)cc4)cnn32)cc1` (stereo unspecified), the “activity change, positive = activation” value is inactive: -28.5%.

As for `CCc1ccc(S(=O)(=O)c2cn(C)c3cc(N4CCCCC4C)c(F)cc3c2=O)cc1` (stereo unspecified), the “activity change, positive = activation” value is inactive: -21.3%.

As to `COc1cc(OC)cc(-c2nc3n(n2)C(c2ccccc2F)C(C(=O)Nc2cccnc2)=C(C)N3)c1` (stereo unspecified), the “activity change, positive = activation” value was inactive: -24.6%.

Consider `Cc1ccc(S(=O)(=O)NCC(c2ccc(N(C)C)cc2)N2CCCC2)cc1` (stereo unspecified), for which the “activity change, positive = activation” value is inactive: -12.9%.

On to `Cc1cc(C)cc(NC(=O)C2CCCN(c3nnc(C)c4c(C)n(-c5ccccc5)nc34)C2)c1` (stereo unspecified), for which the “activity change, positive = activation” value is inactive: -12.9%.

For `CCOC(=O)Cn1c(=O)oc2cc(S(=O)(=O)N3CCN(c4ccc(Cl)cc4)CC3)ccc21`, the “activity change, positive = activation” value was inactive: -17.2%.

In the case of `CCOC(=O)C1CCN(C(c2ccccc2)c2c(O)cc(C)n(Cc3ccco3)c2=O)CC1` (stereo unspecified), the “activity change, positive = activation” value is inactive: 1.82%.

For the compound `O=C(CSc1nccn1Cc1ccco1)Nc1cccc(F)c1`, the “activity change, positive = activation” value was inactive: 14.6%.

Turning to `CCc1c(C)c2ccc3c(c2oc1=O)CN(Cc1ccccc1)CO3`, the “activity change, positive = activation” value is inactive: -21.9%.

Turning to `COc1ccc(OCC(=O)Nc2nnc(S(=O)(=O)N3CCCCCC3)s2)cc1`, the “activity change, positive = activation” value is inactive: -7.66%.

With `Cc1ccc(-n2c(CCC(=O)O)ccc2-c2cccs2)cc1C`, the “activity change, positive = activation” value is inactive: 14.3%.

As to `CCC(CC)C(=O)Nc1cccc(-c2nc3cccnc3s2)c1C`, the “activity change, positive = activation” value was inactive: -14.8%.

Turning to `COc1ccc(-n2nc3ccc(NC(=O)c4cc5ccccc5o4)cc3n2)cc1Cl`, the “activity change, positive = activation” value is inactive: -0.878%.

Consider `COc1ccccc1-c1nc(S(=O)(=O)c2ccc(Cl)cc2)c(N2CCCCCC2)o1`, for which the “activity change, positive = activation” value was inactive: -28.6%.

With `CC1(C)O[C@H]2[C@@H](O1)[C@@H](C(=O)Nc1ccccc1O)O[C@@H]1OC(C)(C)O[C@@H]12`, the “activity change, positive = activation” value is inactive: -12%.

Turning to `CCc1ccc(-c2nn(CC(=O)NC3CCCC3)c3c2cnc2ccc(C)cc23)cc1`, the “activity change, positive = activation” value is inactive: -0.857%.

For the compound `CCOc1cc(C2C(C(=O)OC)=C(C)NC3=C2C(=O)c2ccccc23)ccc1O` (stereo unspecified), the “activity change, positive = activation” value is inactive: -16.2%.

With `O=C(Nc1ccc(N2CCC(N3CCCCC3)CC2)c(C(=O)O)c1)c1ccc(Br)cc1`, the “activity change, positive = activation” value is inactive: 0%.

Turning to `FC(F)(F)c1ccccc1-n1ccnc1`, the “activity change, positive = activation” value was inactive: 0.993%.

`Cc1cccc(/C=C/c2onc(C)c2S(=O)(=O)N2CCC(C(=O)N3CCC(C)CC3)CC2)c1`: the “activity change, positive = activation” value was inactive: -10.3%.

For the compound `Cc1ccc(C(C)C)c(OCC(=O)Nc2c(C(=O)c3ccccc3)oc3ccccc23)c1`, the “activity change, positive = activation” value was inactive: -4.2%.

As to `Cc1ccc(NC(=O)Cn2c(=O)n(Cc3ccccc3)c(=O)c3c(C)c(C)sc32)c(C)c1`, the “activity change, positive = activation” value was inactive: 8.92%.

In the case of `CCC(Cc1ccccc1)NC(=O)c1ccc2nc(N3CCC(C)CC3)sc2c1` (stereo unspecified), the “activity change, positive = activation” value was inactive: -71%.

On to `CCc1ccccc1NC(=O)C1=CC(c2ccc(OC)c(OC)c2)=NS(=O)(=O)N1C`, for which the “activity change, positive = activation” value is inactive: -26.7%.

For `CCOC(=O)c1ccc(-n2c(N)c(C(=O)OC)c3nc4ccccc4nc32)cc1`, the “activity change, positive = activation” value was inactive: -19.8%.

As for `Cc1cccc(C)c1OCC(=O)NCC1(N2CCOCC2)CCCCC1`, the “activity change, positive = activation” value was inactive: -29.2%.

Take `COc1ccc(OC(=O)c2nc(SCc3ccc(C)cc3)ncc2Cl)cc1`: the “activity change, positive = activation” value is inactive: -0.158%.

In the case of `O=C(CN1C(=O)COc2ccc(S(=O)(=O)N3CCCCC3)cc21)NCc1ccc(F)cc1`, the “activity change, positive = activation” value was inactive: 3.51%.

On to `Cc1ccc(-c2nc(C)c(CCNC(=O)C(=O)Nc3ccc4c(c3)OCCO4)s2)cc1`, for which the “activity change, positive = activation” value is inactive: 5.73%.

`CCOc1ccc(N(CC(=O)Nc2ccc(F)cc2F)S(=O)(=O)c2c(C)[nH]c(=O)[nH]c2=O)cc1`: the “activity change, positive = activation” value was inactive: -12%.

Turning to `CN1C(=O)c2ccccc2Sc2ccc(NC(=O)Nc3ccccc3F)cc21`, the “activity change, positive = activation” value was inactive: -15.9%.
